{"source": "paper PMC4336329", "about": "(PLoS ONE, 2015)", "note": "The campaign covered roughly 310,000 compounds. About 2,200 (0.71%) showed an effect of 50% or more. Effects have a minus sign here. Some of the results follow."}
{"biological_target": "human ether-à-go-go-related gene (hERG) potassium channel (human, UniProt Q12809)", "sequence (Q12809 whole entry, looked up)": "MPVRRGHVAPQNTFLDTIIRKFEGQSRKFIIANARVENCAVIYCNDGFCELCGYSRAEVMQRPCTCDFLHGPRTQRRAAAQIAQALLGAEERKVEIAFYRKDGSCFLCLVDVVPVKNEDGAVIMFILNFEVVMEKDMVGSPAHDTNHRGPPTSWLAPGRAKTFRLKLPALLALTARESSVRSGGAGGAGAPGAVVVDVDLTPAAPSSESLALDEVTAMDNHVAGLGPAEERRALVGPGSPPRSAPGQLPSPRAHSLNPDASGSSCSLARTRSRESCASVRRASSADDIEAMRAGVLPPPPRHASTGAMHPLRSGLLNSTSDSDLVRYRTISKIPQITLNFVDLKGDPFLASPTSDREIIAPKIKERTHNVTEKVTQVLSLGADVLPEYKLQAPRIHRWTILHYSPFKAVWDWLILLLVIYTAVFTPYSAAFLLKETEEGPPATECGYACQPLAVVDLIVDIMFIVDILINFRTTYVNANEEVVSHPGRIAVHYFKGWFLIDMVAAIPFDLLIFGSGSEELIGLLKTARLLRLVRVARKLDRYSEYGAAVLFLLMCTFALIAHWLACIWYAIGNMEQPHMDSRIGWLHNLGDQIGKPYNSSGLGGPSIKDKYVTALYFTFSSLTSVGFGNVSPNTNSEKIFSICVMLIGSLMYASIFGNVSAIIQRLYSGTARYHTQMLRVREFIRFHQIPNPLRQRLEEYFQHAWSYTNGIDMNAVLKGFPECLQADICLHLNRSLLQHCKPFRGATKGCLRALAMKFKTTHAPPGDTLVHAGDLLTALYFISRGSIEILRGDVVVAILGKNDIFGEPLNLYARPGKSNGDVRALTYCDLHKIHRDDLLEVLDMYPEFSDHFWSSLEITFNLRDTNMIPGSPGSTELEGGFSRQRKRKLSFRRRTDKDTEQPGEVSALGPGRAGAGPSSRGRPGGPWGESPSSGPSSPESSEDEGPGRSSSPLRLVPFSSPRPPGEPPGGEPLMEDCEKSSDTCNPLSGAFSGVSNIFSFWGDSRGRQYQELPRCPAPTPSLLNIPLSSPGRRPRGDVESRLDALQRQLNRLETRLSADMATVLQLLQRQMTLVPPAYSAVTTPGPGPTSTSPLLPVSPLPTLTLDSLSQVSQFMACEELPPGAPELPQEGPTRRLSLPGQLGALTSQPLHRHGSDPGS", "assay": "primary screen, population patch clamp on CHO cells stably expressing hERG", "units": {"hERG current change (%, negative = inhibition) at 1uM": "%"}}
{"compound": "CCC(CC)C(=O)c1c[nH]c(C(=O)NC2CCCCCC2)c1", "hERG current change (%, negative = inhibition) at 1uM": 3.72}
{"compound": "COc1ccc(-c2noc(-c3cccnc3)n2)cc1OC", "hERG current change (%, negative = inhibition) at 1uM": 7.87}
{"compound": "COc1cc2[nH]c(=O)c(C(=O)NCc3ccc(F)cc3)c(O)c2cc1OC", "hERG current change (%, negative = inhibition) at 1uM": 8.85}
{"compound": "O=C(COC(=O)c1nc(Cl)ccc1Cl)Nc1ncc(Cl)cc1Cl", "hERG current change (%, negative = inhibition) at 1uM": 14.4}
{"compound": "CC(=O)Nc1ccc(Cl)cc1C(=O)O", "hERG current change (%, negative = inhibition) at 1uM": 8.71}
{"compound": "O=C(CNC(=O)c1cccs1)Nc1ncccc1O", "hERG current change (%, negative = inhibition) at 1uM": 9.71}
{"compound": "Cc1nc(N(C)Cc2ccccc2)c2nnn(Cc3ccccc3)c2n1", "hERG current change (%, negative = inhibition) at 1uM": 12.4}
{"compound": "Cc1nn(-c2ccccc2)c(C)c1C(=O)NCc1cccs1", "hERG current change (%, negative = inhibition) at 1uM": 11.2}
{"compound": "O=S(=O)(c1cccc2cccnc12)N1CCCCC1", "hERG current change (%, negative = inhibition) at 1uM": 12.4}
{"compound": "CCCCNC(=O)NC12CC3CC(CC(C3)C1)C2", "hERG current change (%, negative = inhibition) at 1uM": -12}
{"compound": "CCN(CC)CCOC(=O)c1cccc2c1-c1ccccc1C2O.Cl", "note": "(stereo not shown)", "hERG current change (%, negative = inhibition) at 1uM": 5.9}
{"compound": "COc1ccc(CN(CC2CCCO2)C(=O)CN2C(=O)COc3ccccc32)cc1OC", "note": "(stereo not shown)", "hERG current change (%, negative = inhibition) at 1uM": 7.89}
{"compound": "O=C(CCC(=O)N1CCSc2ccccc21)Nc1ccc(F)cc1", "hERG current change (%, negative = inhibition) at 1uM": 14.3}
{"compound": "CCC(C)(C(=O)NC1CCCC1)N(C(=O)Cc1cccs1)c1c(C)n(C)n(-c2ccccc2)c1=O", "note": "(stereo not shown)", "hERG current change (%, negative = inhibition) at 1uM": 9.14}
{"compound": "Cc1ccc(N(CC(=O)O)S(=O)(=O)c2cccc3nonc23)cc1", "hERG current change (%, negative = inhibition) at 1uM": 8.31}
{"compound": "CC(C)(C)NC(=O)NC(=O)COC(=O)c1cccc(NS(=O)(=O)c2ccc(F)c(F)c2)c1", "hERG current change (%, negative = inhibition) at 1uM": 7.76}
{"compound": "Cn1nnnc1SCC(=O)N1CCc2ccccc21", "hERG current change (%, negative = inhibition) at 1uM": 8.86}
{"compound": "CCN(CC)CCCCOc1ccccc1OC", "hERG current change (%, negative = inhibition) at 1uM": 1.8}
{"compound": "Cl.Nc1nc(N2CCN(C(=O)c3ccco3)CC2)nc2ccccc12", "hERG current change (%, negative = inhibition) at 1uM": -32.9}
{"compound": "CC1Cc2ccccc2C(CCc2ccccc2)=N1.Cl", "note": "(stereo not shown)", "hERG current change (%, negative = inhibition) at 1uM": 8.68}
{"compound": "Cc1cc(Cl)ccc1OCC(=O)N1CCCN(C(=O)COc2ccc(Cl)cc2C)CC1", "hERG current change (%, negative = inhibition) at 1uM": -4.16}
{"compound": "CCOC(=O)C1CCN(Cc2ccc(N(C)C)cc2)CC1", "hERG current change (%, negative = inhibition) at 1uM": 13.5}
{"compound": "COc1ccc2ccccc2c1/C=N\\n1c(C)cc(C)c(C(N)=O)c1=O", "hERG current change (%, negative = inhibition) at 1uM": 10.1}
{"compound": "O=C(NNC(=S)NC1CCCCC1)c1ccccc1Cl", "hERG current change (%, negative = inhibition) at 1uM": 8.08}
{"compound": "CC1CCCN(CCCNC(=O)c2coc3nc4ccccc4nc23)C1", "note": "(stereo not shown)", "hERG current change (%, negative = inhibition) at 1uM": 8.45}
{"compound": "CCOc1ccc(Nc2nc3cc(S(=O)(=O)CC)ccc3o2)cc1", "hERG current change (%, negative = inhibition) at 1uM": 11}
{"compound": "CC(C)NC(=S)Nc1ccc2[nH]c(=O)[nH]c2c1", "hERG current change (%, negative = inhibition) at 1uM": 5.15}
{"compound": "COc1ccc(C2CC(C(F)(F)F)n3nc(C(=O)NCCCn4ccnc4)cc3N2)cc1OC", "note": "(stereo not shown)", "hERG current change (%, negative = inhibition) at 1uM": 6.41}
{"compound": "COc1cc(NC(=O)CN2CCN(S(=O)(=O)/C=C/c3ccccc3)CC2)cc(OC)c1OC", "hERG current change (%, negative = inhibition) at 1uM": 3.24}
{"compound": "Cc1c(C(=O)N/N=C/c2c(O)ccc3ccccc23)nnn1-c1nonc1N", "hERG current change (%, negative = inhibition) at 1uM": 20}
{"compound": "Cc1c(NC(=O)COc2ccc(C(C)C)cc2)c(=O)n(-c2ccccc2)n1C", "hERG current change (%, negative = inhibition) at 1uM": -14.3}
{"compound": "CCSc1nsc(SCC)c1C(N)=O", "hERG current change (%, negative = inhibition) at 1uM": 10.7}
{"compound": "CCOc1ccnc2c1c(=O)n(Cc1cc(OC)cc(OC)c1)c(=O)n2C", "hERG current change (%, negative = inhibition) at 1uM": 6.55}
{"compound": "Cl.O=C(CN1CCCC1)NC12CC3CC(CC(C3)C1)C2", "hERG current change (%, negative = inhibition) at 1uM": 4.67}
{"compound": "Cc1cccn2c(=O)c3cc(C(=O)NCc4ccco4)c(=N)n(C4CCCC4)c3nc12", "hERG current change (%, negative = inhibition) at 1uM": -85.5}
{"compound": "COc1cc2ncnc(NCc3ccccc3)c2cc1OC", "hERG current change (%, negative = inhibition) at 1uM": 6.49}
{"compound": "CC(=O)c1ccc(NC(=S)NCCCN2CCOCC2)cc1", "hERG current change (%, negative = inhibition) at 1uM": 10.3}
{"compound": "CN1C(=O)N(C)C(=O)C(CCc2ccncc2)(CCc2ccncc2)C1=O", "hERG current change (%, negative = inhibition) at 1uM": -8.33}
{"compound": "COc1ccccc1NCCC(=O)OCC(=O)Nc1cccc(S(=O)(=O)N(C)C)c1", "hERG current change (%, negative = inhibition) at 1uM": 12.1}
{"compound": "COCn1c(C(O)c2ccccc2)cc2ccccc21", "note": "(stereo not shown)", "hERG current change (%, negative = inhibition) at 1uM": 13.6}
{"compound": "COC(=O)Nc1nc(Sc2ncc(C(F)(F)F)cc2Cl)n[nH]1", "hERG current change (%, negative = inhibition) at 1uM": 0.842}
{"compound": "Cc1ccc([C@@H]2CC=C(C(=O)O)CN2S(=O)(=O)c2ccc(C)cc2)cc1", "hERG current change (%, negative = inhibition) at 1uM": 17.6}
{"compound": "COC(=O)c1cn(C(=O)c2cc(Cl)ccc2Cl)c2ccccc12", "hERG current change (%, negative = inhibition) at 1uM": 12.7}
{"compound": "N#Cc1nc(N)nc(N(c2ccccc2)c2ccccc2)n1", "hERG current change (%, negative = inhibition) at 1uM": -0.884}
{"compound": "CCOc1ccc(CC(=O)N/N=C/c2sccc2C)cc1", "hERG current change (%, negative = inhibition) at 1uM": 11.8}
{"compound": "CC1CC(C)CN(S(=O)(=O)c2ccc3c(c2)n(C)c(=O)c(=O)n3C)C1", "note": "(stereo not shown)", "hERG current change (%, negative = inhibition) at 1uM": 11.4}
{"compound": "Cc1ccnc(NC(=O)CCC(=O)N(CC(=O)NCC2CCCO2)Cc2ccc(F)cc2)c1", "note": "(stereo not shown)", "hERG current change (%, negative = inhibition) at 1uM": 3.8}
{"compound": "CCCCN(C)C(=O)C1CCC(=O)N(c2cc(OC)c(OC)c(OC)c2)C1c1ccc(OC)cc1", "note": "(stereo not shown)", "hERG current change (%, negative = inhibition) at 1uM": 8.58}
{"compound": "CCOC(=O)c1sc2nc(SC)nc(-c3ccccc3)c2c1N", "hERG current change (%, negative = inhibition) at 1uM": 11.2}
{"compound": "CN(C)[C@@H](CO)c1nnc([C@H](CC(=O)O)NC(=O)C2CCNCC2)o1.Cl", "hERG current change (%, negative = inhibition) at 1uM": 11.6}
{"compound": "Cc1cccnc1NC(=S)NC(=O)c1cccs1", "hERG current change (%, negative = inhibition) at 1uM": -3.11}
{"compound": "CC(C)CC(C(=O)O)N1C(=O)C2C3CC(C2C1=O)C1C(c2ccccc2)c2sc(=O)[nH]c2SC31", "note": "(stereo not shown)", "hERG current change (%, negative = inhibition) at 1uM": 1.35}
{"compound": "COC(=O)c1cc(Br)ccc1OC(=O)c1cccnc1", "hERG current change (%, negative = inhibition) at 1uM": 14.1}
{"compound": "COc1ccc2nc(NCCCO)[nH]c2c1", "hERG current change (%, negative = inhibition) at 1uM": 10.2}
{"compound": "COc1ccccc1NC(=O)NCc1nc(-c2ccc(C(F)(F)F)cc2)no1", "hERG current change (%, negative = inhibition) at 1uM": 12}
{"compound": "CC(C)N1CCc2c(sc(NC(=O)c3cc(-c4cccs4)nc4ccccc34)c2C(N)=O)C1.Cl", "hERG current change (%, negative = inhibition) at 1uM": 9.76}
{"compound": "CCn1c(SCC(=O)N/N=C/c2ccccc2OCC(=O)O)nnc1-c1ccc(C)cc1", "hERG current change (%, negative = inhibition) at 1uM": 9.72}
{"compound": "CCOc1cc(C2C3=C(CCCC3=O)N(CCC(=O)O)C3=C2C(=O)CCC3)ccc1OS(=O)(=O)c1ccc(C)cc1", "hERG current change (%, negative = inhibition) at 1uM": 8.39}
